The values below come from the supplement of paper PMC9446081.

Out of some 39,000 compounds screened, about 220 (0.56%) showed activity. This is one part of the list.
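Also: static incubation at 37 °C against the wild-type strain, values averaged over two biological replicates.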

The test system of this assay is Escherichia coli K-12 BW25113. Put plainly: relative growth (OD600 normalised to plate interquartile mean) (fraction); higher = less growth inhibition, active = 0.2 or less. The note with it: 50 µM; LB; incubation time: overnight (16-24 h).
For the compound `CCC(=O)NCc1nccc(N(C)C)n1`, the relative growth is inactive: 1.02. For `C[C@@H]1CN([C@@H](C)CO)C(=O)c2cccc(NC(=O)c3cnccn3)c2O[C@@H]1CN(C)S(=O)(=O)c1cn(C)cn1` the value was inactive: 1.01; for `CO[C@@H]1CN(C)C(=O)c2ccc(NS(=O)(=O)c3cn(C)cn3)cc2OC[C@@H](C)N(CC2CC2)C[C@H]1C`, inactive: 1. Next, `C[C@@H]1CN([C@H](C)CO)C(=O)c2cc(NS(=O)(=O)c3ccccc3)ccc2O[C@H]1CN(C)Cc1ccc(Oc2ccccc2)cc1`: inactive: 0.992. `Cl.Cl.O=C1c2c(O)ccc(O)c2C(=O)c2c(NCCNCCO)ccc(NCCNCCO)c21`: the relative growth is inactive: 1.09. Next, `C[C@H](CO)N1C[C@H](C)[C@@H](CN(C)S(=O)(=O)c2ccc(Cl)cc2)Oc2ccc(NC(=O)C3CC3)cc2CC1=O`: inactive: 1; `Cc1ccc(S(=O)(=O)Nc2ccc3c(c2)C(=O)N([C@@H](C)CO)C[C@@H](C)[C@@H](CN(C)S(=O)(=O)c2c(C)noc2C)O3)cc1`: inactive: 1.01; `C[C@@H]1CCCCO[C@@H](CN(C)CC2CC2)[C@@H](C)CN([C@H](C)CO)C(=O)c2cc(NC(=O)CCCCCC(=O)Nc3ccccc3N)ccc2O1`: inactive: 0.849.

As for `C[C@H](CO)N1C[C@H](C)[C@@H](CN(C)S(=O)(=O)c2cn(C)cn2)Oc2ccc(NC(=O)Nc3ccc(F)cc3)cc2CC1=O`, the relative growth was inactive: 0.986. `C[C@@H]1CN([C@H](C)CO)C(=O)Cc2cc(NS(=O)(=O)c3ccccc3)ccc2O[C@@H]1CN(C)CC1CC1`: the relative growth is inactive: 0.995.

As to `C=CC[C@@H](CC(=O)N(CCO)Cc1ccccc1)C(=O)N[C@@H](COC(=O)[C@H](CC=C)Cc1ccc(F)cc1)Cc1c[nH]c2ccccc12`, the relative growth was inactive: 0.843. For `C[C@@H]1CN([C@H](C)CO)S(=O)(=O)c2ccc(C#Cc3cccnc3)cc2O[C@H]1CN(C)C(=O)Nc1ccc2c(c1)OCO2` the value was inactive: 1.01; for `COc1ccc(NC(=O)Nc2ccc3c(c2)C(=O)N([C@@H](C)CO)C[C@@H](C)[C@@H](CN(C)Cc2ccccc2)OCCCC[C@H](C)O3)cc1`, inactive: 0.929; for `C[C@@H]1CCCCO[C@@H](CN(C)C(=O)Cc2ccccc2)[C@@H](C)CN([C@H](C)CO)C(=O)c2cc(NC(=O)C3CCCCC3)ccc2O1`, inactive: 1.04. Next, `C[C@H](CO)N1C[C@H](C)[C@H](CN(C)Cc2ccc(Oc3ccccc3)cc2)Oc2ccc(NC(=O)C3CCCCC3)cc2C1=O`: inactive: 0.998; `C[C@@H]1CN([C@H](C)CO)S(=O)(=O)c2ccc(-c3cccc(F)c3)cc2O[C@H]1CN(C)S(C)(=O)=O`: inactive: 1.
